About 14,000 (4.5%) of roughly 310,000 compounds showed an effect of 50% or more. Effects have a minus sign here. Some of the results follow.
target: human ether-à-go-go-related gene (hERG) potassium channel (human, UniProt Q12809); assay: primary screen, population patch clamp on CHO cells stably expressing hERG
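Note: peak tail current of the secondary pulse compared with the same well before compound.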

Sequence of human ether-à-go-go-related gene (hERG) potassium channel (Q12809 whole entry, looked up): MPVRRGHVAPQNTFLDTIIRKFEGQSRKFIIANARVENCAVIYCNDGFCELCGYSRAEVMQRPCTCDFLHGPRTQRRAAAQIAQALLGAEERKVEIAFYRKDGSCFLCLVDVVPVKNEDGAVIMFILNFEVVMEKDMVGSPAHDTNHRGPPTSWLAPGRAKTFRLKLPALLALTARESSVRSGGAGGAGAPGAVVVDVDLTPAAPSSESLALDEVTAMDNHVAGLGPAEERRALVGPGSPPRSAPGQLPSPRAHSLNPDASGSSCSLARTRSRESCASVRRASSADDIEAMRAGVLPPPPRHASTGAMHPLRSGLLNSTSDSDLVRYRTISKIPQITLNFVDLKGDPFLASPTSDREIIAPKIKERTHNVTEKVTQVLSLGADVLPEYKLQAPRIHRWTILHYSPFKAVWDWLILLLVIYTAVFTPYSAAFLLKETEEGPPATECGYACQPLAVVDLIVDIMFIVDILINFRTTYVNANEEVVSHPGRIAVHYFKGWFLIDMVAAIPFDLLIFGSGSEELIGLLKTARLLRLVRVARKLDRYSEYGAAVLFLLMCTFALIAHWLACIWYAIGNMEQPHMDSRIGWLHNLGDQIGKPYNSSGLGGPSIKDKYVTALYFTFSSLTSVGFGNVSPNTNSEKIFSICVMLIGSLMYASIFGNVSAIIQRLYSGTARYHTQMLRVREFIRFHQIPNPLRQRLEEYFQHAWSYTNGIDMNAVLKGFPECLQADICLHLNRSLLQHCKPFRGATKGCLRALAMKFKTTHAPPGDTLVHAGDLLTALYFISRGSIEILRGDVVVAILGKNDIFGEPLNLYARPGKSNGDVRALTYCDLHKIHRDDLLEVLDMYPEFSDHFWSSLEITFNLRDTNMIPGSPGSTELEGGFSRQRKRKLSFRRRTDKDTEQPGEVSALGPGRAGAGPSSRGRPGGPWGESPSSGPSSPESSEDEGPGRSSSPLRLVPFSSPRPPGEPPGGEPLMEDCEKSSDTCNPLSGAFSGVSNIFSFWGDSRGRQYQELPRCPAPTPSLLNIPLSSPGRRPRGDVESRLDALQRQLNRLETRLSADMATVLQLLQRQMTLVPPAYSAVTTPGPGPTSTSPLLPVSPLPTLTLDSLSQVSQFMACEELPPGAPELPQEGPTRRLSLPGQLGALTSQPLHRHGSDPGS

SMILES | hERG current change (%, negative = inhibition) at 10uM [%]
Cc1ccccc1C(O)(Cc1ccccc1)C1CN2CCC1CC2.Cl (stereo not shown) | -55.2
COc1ccc(C(=O)NC2CCCc3ccccc32)cc1[N+](=O)[O-] (stereo not shown) | -42
COc1ccc(-n2c(SCC(=O)Nc3nccs3)nnc2-c2ccccc2)cc1 | -62.5
CN(C)/C=C/C(=O)c1cc(N2CCOCC2)ccc1[N+](=O)[O-] | 6.97
CCCC(=O)Nc1nnc(CC(=O)N2CCCC2)s1 | 7.72
CCn1nnnc1SCC(=O)NCc1cccs1 | 9.02
CC(C)CNS(=O)(=O)c1ccc(CCC(=O)NC2CCCC2)cc1 | 11.8
CCOc1cc(C(=O)O/N=C(\N)c2ccc([N+](=O)[O-])cc2)cc(OCC)c1OCC | -16
COc1ccc(Nc2nc(N)nc(CN3CCOCC3)n2)cc1 | -5.46
CCCCCC(=O)OCCc1c(C)nc2nc[nH]n2c1=O | 7.43
CCN1CCN(c2cc(C)c3cc(NC(=S)NCCN(C)C)ccc3n2)CC1 | 3.21
Cc1ccc(-n2cc(-c3ccccc3)c3c(=O)[nH]cnc32)cc1 | 8.89
CC(C)(C)NC(=O)c1ccc(NC(=O)c2ccccc2-c2ccccc2C(=O)O)cc1 | 25.2
Cc1cc(C)c(C(=O)N(C)CC2CCCN(CCc3ccccc3F)C2)o1 (stereo not shown) | -70.4
COc1ccccc1CCC(=O)NC1CCCN(c2ccc(C(F)(F)F)cn2)C1 (stereo not shown) | 12.6
CC(C(=O)Nc1ccccc1)N(C)CCOc1ccc(Br)cc1 (stereo not shown) | -33.4
CCOC(=O)c1[nH]c(C)c(/C=N/O)c1C | 1.76
COCCOCC(O)CN1CCN(c2ccccc2)CC1.O=C(O)C(=O)O (stereo not shown) | -3.37
COc1cc(OC)cc(-c2nc3nc(C)c(CCC(=O)O)c(C)n3n2)c1 | -21.7
COc1ccc(C(=O)NCC(=O)OCC(=O)N2CC(C)CC(C)C2)cc1 (stereo not shown) | 6.86

SMILES | hERG current change (%, negative = inhibition) at 10uM [%]
CN1c2ccccc2C(O)=C(C(=S)Nc2ccc(Cl)cc2)S1(=O)=O | -0.528
Cc1ccccc1-c1nc2ccccc2c(=O)n1C1CCS(=O)(=O)C1 (stereo not shown) | -8.07
CSc1ccc(C(=O)C2CCCN(C)C2)cc1 (stereo not shown) | -23.1
CCOc1ccc(CCNC(=O)COC(=O)C2CCN(c3ccc(C(F)(F)F)cn3)CC2)cc1OCC | -10.9
Cc1cc(OC(=O)c2ccccc2Cl)ccc1N1C(=O)CCC1=O | -1.98
O=C1COc2ccc(C(=O)NCc3ccc4c(c3)OCO4)cc2N1 | -26.5
CC(C)NC(=O)c1cc2c(C(F)(F)F)nn(C)c2s1 | 19.9
CC(C)C(=O)NC(=S)Nc1ccc(S(=O)(=O)N2CCN(C)CC2)cc1 | -6.57
Cc1ccc(NP(=O)(Oc2ccccc2F)Oc2ccccc2F)cc1 | -2.48
O=[N+]([O-])c1ccc(N2CCN(C(=S)NC3CCCCC3)CC2)cc1 | -53
Cc1ccc2c(C(=O)CN3CCC4(CC3)OCCO4)c(C)[nH]c2c1 | -3.88
S=c1[nH]nc(-c2cccc(Cl)c2)n1CCN1CCCCC1 | -16.2
CCCc1nc(SCC(=O)N2CCCc3ccccc32)c2c(=O)n(C)c(=O)n(C)c2n1 | -25.1
Fc1ccc(CNc2nc3ccccc3n3nnnc23)cc1 | 6.03
Cc1ccnc(NS(=O)(=O)c2ccc(NC(=O)c3ccccc3F)cc2)n1 | 19.2
COc1ccccc1-c1cc(C(=O)Nc2cccnc2)no1 | -15.9
COc1ccc(-n2c(=O)c3ccccc3n(CC(=O)OCc3ccccc3)c2=O)cc1OC | -1.5
CNC(=S)Nc1cccc(-c2cnc3ccccc3n2)c1 | -35.2
O=C(N/N=C/c1ccc(OCC2COCCO2)cc1)c1ccc(Br)cc1 (stereo not shown) | 7.8
Cc1cccc(NC(=S)NC(=O)/C=C/c2ccccc2)n1 | 12.5

SMILES | hERG current change (%, negative = inhibition) at 10uM [%]
CCOC(=O)Nc1ccc2c(CN3CCC(C(=O)OC)CC3)cc(=O)oc2c1 | 17.4
S=C(NCCN1CCOCC1)Nc1ccc(Nc2ccccc2)cc1 | -11.7
CC(C)[C@H](NC(=O)N1CC(=O)Nc2ccccc21)C(=O)N[C@@H](Cc1ccccc1)C(=O)O | 5.77
COc1ccc(CCNC(=O)COc2ccc(S(=O)(=O)NC(C)C)cc2)cc1OC | 6.8
COc1ccc(NC(=O)Cn2nnc(-c3ccccc3F)n2)cc1 | 8.49
C(=N\Nc1ccccn1)/c1ccc2c(c1)OCCO2 | -6.12
Fc1cccc(Cl)c1CSc1ccc(-c2ccco2)nn1 | 1.19
O=C(CSc1nc2ccccc2s1)Nc1ncccn1 | 13.4
COC(=O)CN1C(=O)[C@H]2[C@@H](c3ccc(C)o3)N3C(=O)CN(CCO)C(=O)[C@@]3(Cc3ccccc3)[C@H]2C1=O | 4.43
Clc1cccc(CN2CCCCC2c2cccnc2)c1 (stereo not shown) | -6.42
N#CC1(NC(=O)Cn2cc(C(F)(F)F)cc(Cl)c2=O)CCCCC1 | 13.3
Cc1ccc2nc(-c3ccc(O)c(O)c3)cn2c1.Cl | 4.68
CC(=O)NCCn1c(SCc2ccc(C)cc2C)nc2ccccc2c1=O | -26.5
Cl.N=c1ccccn1Cc1ccccc1 | 31.5
O=C(CN(C(=O)c1csnn1)c1ccc(F)c(Cl)c1)NCc1ccccc1 | -2.43
CCCC(CCC(=O)Nc1nccs1)C(=O)O (stereo not shown) | 13.1
O=C1CSc2ccc(S(=O)(=O)N3CCN(c4ccccc4)CC3)cc2N1 | 8.82
Cc1cc(C)n(-c2nc(NC(C)(C)C)nc(NC(C)(C)C)n2)n1 | -6.46
